Assay results published in patent US20100260668A1 (published 2010).
One block for each binder: values may come before it.

Molecular target: T1, VEGF (UniProt P15692-4 27-191)
T1 construct: Bought reagent; also called vascular endothelial growth factor
T1 sequence (looked up): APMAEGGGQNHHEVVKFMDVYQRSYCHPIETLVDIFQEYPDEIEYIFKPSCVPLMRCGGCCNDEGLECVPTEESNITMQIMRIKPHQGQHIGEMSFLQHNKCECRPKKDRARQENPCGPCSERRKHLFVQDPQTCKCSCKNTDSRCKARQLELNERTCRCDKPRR
Assay: BIACORE SPR

Kd: 1.57 pM | koff: 5.66e-07 s⁻¹ | kon: 360000 M⁻¹ s⁻¹
B1: DVD459 (bispecific antibody, human IgG1, kappa)
heavy: QVQLVQSGAEVKKPGASVKISCKASGYSFTAYYIHWVKQAPGQGLEWIGYISSYNGATNYNQKFKGRVTFTTDTSTSTAYMELRSLRSDDTAVYYCARDYDYDVGMDYWGQGTLVTVSSASTKGPEVQLVESGGGLVQPGGSLRLSCAASGYTFTNYGMNWVRQAPGKGLEWVGWINTYTGEPTYAADFKRRFTFSLDTSKSTAYLQMNSLRAEDTAVYYCAKYPHYYGSSHWYFDVWGQGTLVTVSS[omitted - human IgG1 constant region]
light: DIVMTQSPDSLAVSLGERATISCRASESVDNYGISFMKWFQQKPGQPPKLLIYAASNQGSGVPDRFSGSGSGTDFTLTISSLQAEDVAVYYCQQSKEVPWTFGGGTKVEIKRTVAAPSVFIFPPDIQMTQSPSSLSASVGDRVTITCSASQDISNYLNWYQQKPGKAPKVLIYFTSSLHSGVPSRFSGSGSGTDFTLTISSLQPEDFATYYCQQYSTVPWTFGQGTKVEIKRTVAAPSVFIFPPSDEQLKSGTASVVCLLNNFYPREAKVQWKVDNALQSGNSQESVTEQDSKDSTYSLSSTLTLSKADYEKHKVYACEVTHQGLSSPVTKSFNRGEC
notes: DVD-Ig; N-term; AB069 (DLL4), C-term; AB014 (VEGF); HC linker short, LC linker long; also called DVD459H; DVD459L

Kd: 1.66 pM | koff: 2.62e-07 s⁻¹ | kon: 158000 M⁻¹ s⁻¹
B2: DVD453 (bispecific antibody, human IgG1, kappa)
heavy: QVQLVQSGAEVKKPGASVKISCKASGYSFTAYYIHWVKQAPGQGLEWIGYISSYNGATNYNQKFKGRVTFTTDTSTSTAYMELRSLRSDDTAVYYCARDYDYDVGMDYWGQGTLVTVSSASTKGPSVFPLAPEVQLVESGGGLVQPGGSLRLSCAASGYTFTNYGMNWVRQAPGKGLEWVGWINTYTGEPTYAADFKRRFTFSLDTSKSTAYLQMNSLRAEDTAVYYCAKYPHYYGSSHWYFDVWGQGTLVTVSS[omitted - human IgG1 constant region]
light: DIVMTQSPDSLAVSLGERATISCRASESVDNYGISFMKWFQQKPGQPPKLLIYAASNQGSGVPDRFSGSGSGTDFTLTISSLQAEDVAVYYCQQSKEVPWTFGGGTKVEIKRTVAAPDIQMTQSPSSLSASVGDRVTITCSASQDISNYLNWYQQKPGKAPKVLIYFTSSLHSGVPSRFSGSGSGTDFTLTISSLQPEDFATYYCQQYSTVPWTFGQGTKVEIKRTVAAPSVFIFPPSDEQLKSGTASVVCLLNNFYPREAKVQWKVDNALQSGNSQESVTEQDSKDSTYSLSSTLTLSKADYEKHKVYACEVTHQGLSSPVTKSFNRGEC
notes: DVD-Ig; N-term; AB069 (DLL4), C-term; AB014 (VEGF); HC linker long, LC linker short; also called DVD453H; DVD453L

Kd: 1010 pM | koff: 0.00037 s⁻¹ | kon: 366000 M⁻¹ s⁻¹
B3: DVD511 (bispecific antibody, human IgG1, kappa)
heavy: EVQLQQSGPELEKPGASVKISCKASGYSFTGYNMNWVKQSNGKSLEWIGNIDPYFGGTNYNQKFKGKATLTVDKSSSTAYMQLKSLTSEDSAVYYCARNYDYDGGCFDYWGQGTTLTVSSASTKGPEVQLVESGGGLVQPGGSLRLSCAASGYTFTNYGMNWVRQAPGKGLEWVGWINTYTGEPTYAADFKRRFTFSLDTSKSTAYLQMNSLRAEDTAVYYCAKYPHYYGSSHWYFDVWGQGTLVTVSS[omitted - human IgG1 constant region]
light: QAVVTQESALTTSPGETVTLTCRSSTGAVTTSNYANWVQEKPDHLFTGLIGGTNNRAPGVPARFSGSLIGDKAALTITGAQTEDEAIYFCALWYSNHWVFGGGTKLTVLGQPKAAPDIQMTQSPSSLSASVGDRVTITCSASQDISNYLNWYQQKPGKAPKVLIYFTSSLHSGVPSRFSGSGSGTDFTLTISSLQPEDFATYYCQQYSTVPWTFGQGTKVEIKRTVAAPSVFIFPPSDEQLKSGTASVVCLLNNFYPREAKVQWKVDNALQSGNSQESVTEQDSKDSTYSLSSTLTLSKADYEKHKVYACEVTHQGLSSPVTKSFNRGEC
notes: DVD-Ig; N-term; AB073 (DLL4), C-term; AB014 (VEGF); HC linker short, LC linker short; also called DVD511H; DVD511L
